Laboratory results from a collection of fitness landscapes (doi:10.1016/j.celrep.2020.107928).
The full ranking holds about 81,000 sequences; the median of “one-hybrid fitness for binding NBS DNA” is about -0.1, and the highest 2% start at about 0.36. The list shows a part of the results.

B1: Caulobacter ParB omega fusion; a variant is named by its letters at X, in order, B8GW30 (parent)
chain: MESVVVGEPGMSEGRRGLGRGLSALLGEVDAAPAQAPGEQLGGSREAPIEILQRNPDQPRRTFREEDLEDLSNSIREKGVLQPILVRPSPDTAGEYQIVAGERAWRAAQRAGLKTVPIMVRELDDLAVLEIGIIENVQRADLNVLEEALSYKVLMEKFERTQENIAQTIGKSXSHVANXMRLLXLPDEVQSYLVSGELTAXHARAIAAAADPVALAKQIIEGGLSVRETEALARKAPNLSAGKSKGGRPPRVKDTDTQALESDLSSVLGLDVSIDHRGSTGTLTITYATLEQLDDLCNRLTRGI

Variants of: B1
Assay: one-hybrid fitness for binding NBS DNA (the Noc-binding site; scaled: cognate 1, non-cognate 0); higher = stronger binding
Settings: with NBS DNA site
How it was run: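 Selection: bacterial one-hybrid in E. coli USO, HIS3 reporter with the site 19 bp from the promoter, 48 hours at 37°C on M9-minus-histidine plus 0.1 mM IPTG and 5 mM 3-AT. Libraries were Caulobacter ParB with four randomised specificity codons, sequenced on Illumina before and after selection. Fitness is the rescaled log change in variant-to-wild-type read ratio, anchored to the cognate and non-cognate sites.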

Variant | one-hybrid fitness for binding NBS DNA
MSLC | ≤ 0.2
HTKY | ≤ 0.2
TAPE | ≤ 0.2
QLLD | ≤ 0.2
AVSA | ≤ 0.2
RSLP | ≤ 0.2
QAKF | 0.261
CHAH | ≤ 0.2
EKEV | ≤ 0.2
ERKP | ≤ 0.2
VKLC | ≤ 0.2
VTGG | ≤ 0.2
ALRA | ≤ 0.2
RNVD | ≤ 0.2
HIHL | ≤ 0.2
HSKR | ≤ 0.2
GVSL | ≤ 0.2
NWTA | ≤ 0.2
CNTW | ≤ 0.2
NRWT | ≤ 0.2
SSYE | ≤ 0.2
LNST | ≤ 0.2
IVLN | ≤ 0.2
DGRT | ≤ 0.2

Variant | one-hybrid fitness for binding NBS DNA
RFKL | ≤ 0.2
LQTG | ≤ 0.2
TYGT | ≤ 0.2
IDSL | ≤ 0.2
HPER | ≤ 0.2
RVNN | ≤ 0.2
RGYM | ≤ 0.2
KWSM | ≤ 0.2
AHTM | ≤ 0.2
HLPT | ≤ 0.2
PWLA | ≤ 0.2
GRSW | ≤ 0.2
EPSG | ≤ 0.2
ADQR | ≤ 0.2
QRMR | 0.971
HIKL | ≤ 0.2
QTMK | ≤ 0.2
HLCL | ≤ 0.2
CPKM | ≤ 0.2
LAMM | ≤ 0.2
LAAT | ≤ 0.2
PWAT | ≤ 0.2
QHDS | ≤ 0.2
GGPY | ≤ 0.2

Variant | one-hybrid fitness for binding NBS DNA
PSAC | ≤ 0.2
VWDG | ≤ 0.2
CVSR | ≤ 0.2
NLPN | ≤ 0.2
SWPP | ≤ 0.2
SYNE | ≤ 0.2
MVIC | ≤ 0.2
VSIV | ≤ 0.2
REVY | ≤ 0.2
MQGF | ≤ 0.2
TACF | ≤ 0.2
SSDP | ≤ 0.2
QWRF | ≤ 0.2
RGII | ≤ 0.2
YYSP | ≤ 0.2
MLTK | ≤ 0.2
RCIA | ≤ 0.2
LLRS | ≤ 0.2
FTRT | ≤ 0.2
PYRC | ≤ 0.2
THAD | ≤ 0.2
EIFS | ≤ 0.2
VQST | ≤ 0.2
KSQH | ≤ 0.2

Variant | one-hybrid fitness for binding NBS DNA
NTPG | ≤ 0.2
LLIM | ≤ 0.2
MPFK | ≤ 0.2
FYTG | ≤ 0.2
HIFY | ≤ 0.2
AICT | ≤ 0.2
ISPS | ≤ 0.2
QAMN | ≤ 0.2
RFEN | ≤ 0.2
QIRQ | 0.296
QGSN | ≤ 0.2
PLDS | ≤ 0.2
CCAK | ≤ 0.2
QTEE | ≤ 0.2
YYRE | ≤ 0.2
GDKT | ≤ 0.2
NTRH | ≤ 0.2
AVFD | ≤ 0.2
DERT | ≤ 0.2
RMSE | ≤ 0.2
VPKT | ≤ 0.2
VPAT | ≤ 0.2
AWSH | ≤ 0.2
PHSP | ≤ 0.2

Variant | one-hybrid fitness for binding NBS DNA
NEWR | ≤ 0.2
ISKI | ≤ 0.2
SVGK | ≤ 0.2
MASR | ≤ 0.2
YRFY | ≤ 0.2
MYHV | ≤ 0.2
WFRG | ≤ 0.2
ESQH | ≤ 0.2
YAPF | ≤ 0.2
DISW | ≤ 0.2
PTMF | ≤ 0.2
CRDT | ≤ 0.2
QKIA | 0.228
PCYS | ≤ 0.2
DLMC | ≤ 0.2
YSKR | ≤ 0.2
WRNC | ≤ 0.2
RFRC | ≤ 0.2
RDPK | ≤ 0.2
ISMS | ≤ 0.2
HYWT | ≤ 0.2
ITLG | ≤ 0.2
HQTL | ≤ 0.2
QIVR | 0.271

Variant | one-hybrid fitness for binding NBS DNA
DASY | ≤ 0.2
KLLD | ≤ 0.2
DPFR | ≤ 0.2
FQTS | ≤ 0.2
TLQM | ≤ 0.2
FSRK | ≤ 0.2
RWFN | ≤ 0.2
IRKC | ≤ 0.2
GRAM | ≤ 0.2
TWII | ≤ 0.2
SRFV | ≤ 0.2
AEQR | ≤ 0.2
RDRR | ≤ 0.2
SRMC | ≤ 0.2
NSIA | ≤ 0.2
DQPW | ≤ 0.2
REFV | ≤ 0.2
RKEM | ≤ 0.2
AWSY | ≤ 0.2
KYHT | ≤ 0.2
NFTR | ≤ 0.2
MACV | ≤ 0.2
NPKS | ≤ 0.2
CGAT | 0.244

Variant | one-hybrid fitness for binding NBS DNA
YSCR | ≤ 0.2
GIWT | ≤ 0.2
KTRM | ≤ 0.2
PVRG | ≤ 0.2
PESF | ≤ 0.2
PQMI | ≤ 0.2
INQF | ≤ 0.2
RCHT | 0.538
MVPA | ≤ 0.2
HNMV | ≤ 0.2
WMIT | ≤ 0.2
SKLH | ≤ 0.2
RHHH | ≤ 0.2
RMWD | ≤ 0.2
NDYF | ≤ 0.2
FPGV | ≤ 0.2
SYSN | ≤ 0.2
TIGT | ≤ 0.2
FTKG | ≤ 0.2
AEAR | ≤ 0.2
YTKV | ≤ 0.2
RNAI | ≤ 0.2
ADLY | ≤ 0.2
HMFT | ≤ 0.2

Variant | one-hybrid fitness for binding NBS DNA
VVHA | ≤ 0.2
ATCV | ≤ 0.2
DMLL | ≤ 0.2
SPAD | ≤ 0.2
VLSF | ≤ 0.2
KMTG | ≤ 0.2
PERM | ≤ 0.2
CRLT | ≤ 0.2
FNPG | ≤ 0.2
SLVF | ≤ 0.2
NVST | ≤ 0.2
PSKT | ≤ 0.2
RMQC | ≤ 0.2
RAQP | ≤ 0.2
HGML | ≤ 0.2
RGPY | ≤ 0.2
KTLM | ≤ 0.2
PPAD | ≤ 0.2
KARR | 0.347
PISL | ≤ 0.2
ARNK | ≤ 0.2
MPLH | ≤ 0.2
SENC | ≤ 0.2
GNPA | ≤ 0.2

Variant | one-hybrid fitness for binding NBS DNA
HMVY | ≤ 0.2
QSRD | 0.219
RTVG | ≤ 0.2
YKFV | ≤ 0.2
FSYG | ≤ 0.2
QQRV | 0.493
YSHN | ≤ 0.2
VYAW | ≤ 0.2
IIKT | ≤ 0.2
SAHM | ≤ 0.2
IHNV | ≤ 0.2
PCDG | ≤ 0.2
FFYG | ≤ 0.2
QKTW | ≤ 0.2
FRRW | ≤ 0.2
GHNQ | ≤ 0.2
RHMS | 0.386
LYCL | ≤ 0.2
INTF | ≤ 0.2
QALQ | ≤ 0.2
QCTG | ≤ 0.2
SPTC | ≤ 0.2
HDVL | ≤ 0.2
TIRN | ≤ 0.2

Variant | one-hybrid fitness for binding NBS DNA
IYHD | ≤ 0.2
DQRS | ≤ 0.2
MSGT | ≤ 0.2
CIEY | ≤ 0.2
RWSV | ≤ 0.2
GSCI | ≤ 0.2
LPHC | ≤ 0.2
QNCG | ≤ 0.2
QVAS | 0.235
KRTE | ≤ 0.2
YENT | ≤ 0.2
IQNI | ≤ 0.2
CKSV | ≤ 0.2
YEMA | ≤ 0.2
LNIY | ≤ 0.2
AAKN | ≤ 0.2
ETLA | ≤ 0.2
NSII | ≤ 0.2
LAIN | ≤ 0.2
QHPP | ≤ 0.2
WHSI | ≤ 0.2
TANT | ≤ 0.2
NEPS | ≤ 0.2
CGCN | ≤ 0.2

Variant | one-hybrid fitness for binding NBS DNA
HSLN | ≤ 0.2
PWRC | ≤ 0.2
DDNS | ≤ 0.2
YGAY | ≤ 0.2
QSIQ | ≤ 0.2
VLHK | ≤ 0.2
HRGG | ≤ 0.2
IVIT | ≤ 0.2
SPPK | ≤ 0.2
AQGV | ≤ 0.2
HSSC | ≤ 0.2
GVFL | ≤ 0.2
GYMS | ≤ 0.2
LRSK | ≤ 0.2
IAIT | ≤ 0.2
GHPK | ≤ 0.2
GMKN | ≤ 0.2
VHCL | ≤ 0.2
TMVR | ≤ 0.2
CCNR | ≤ 0.2
NSQS | ≤ 0.2
SEVS | ≤ 0.2
QATV | ≤ 0.2
HYGT | ≤ 0.2

Variant | one-hybrid fitness for binding NBS DNA
GMRT | ≤ 0.2
LLAP | ≤ 0.2
ATMG | ≤ 0.2
NMHC | ≤ 0.2
DRSL | ≤ 0.2
TMNV | ≤ 0.2
DPQG | ≤ 0.2
ADAG | ≤ 0.2
DCLT | ≤ 0.2
YDCS | ≤ 0.2
KHLK | ≤ 0.2
GTLD | ≤ 0.2
FKWG | ≤ 0.2
PTPR | ≤ 0.2
PLKC | ≤ 0.2
QIAK | ≤ 0.2
VPVE | ≤ 0.2
PDGP | ≤ 0.2
CETW | ≤ 0.2
YNNL | ≤ 0.2
FVKP | ≤ 0.2
QKVE | ≤ 0.2
DTNF | ≤ 0.2
HARY | ≤ 0.2

Variant | one-hybrid fitness for binding NBS DNA
PPKY | ≤ 0.2
RMIY | ≤ 0.2
RLNR | 0.526
RDQV | ≤ 0.2
LTEL | ≤ 0.2
QIEP | ≤ 0.2
IIHD | ≤ 0.2
INME | ≤ 0.2
DMAT | ≤ 0.2
APCV | ≤ 0.2
REQN | ≤ 0.2
RKWY | ≤ 0.2
ASDR | ≤ 0.2
CRHG | ≤ 0.2
KQTI | ≤ 0.2
RIHD | ≤ 0.2
QLFR | 0.329
QQHN | ≤ 0.2
